Assay results: PubChem BioAssay AID485360 (National Center for Advancing Translational Sciences (NCATS), 2010)
Hit rate of the full screen: of about 230,000 compounds, about 1,500 (0.65%) were called active. The inconclusive results got no clear call from the source; some entries with a clear call stand among them for comparison. Calls come from the whole dose curve; as a rule, active = well fitted inhibition curve with a large enough effect; inconclusive = small, poorly fitted or top-dose-only effect; inactive = no such curve, though single readings can be large or run the other way. Potencies of inconclusive entries are doubtful fits and often do not repeat.

Each molecule was assayed against Lethal(3)malignant brain tumor-like protein 1 (Homo sapiens) (UniProt Q9Y468) (assay: qHTS Assay for the Inhibitors of L3MBTL1). Details: AlphaScreen L3MBTL1–H3K9me1 peptide binding; activity, negative = inhibition: at 57.1 µM (top of the series).
Chain of UniProt Q9Y468 (Q9Y468 whole entry, looked up): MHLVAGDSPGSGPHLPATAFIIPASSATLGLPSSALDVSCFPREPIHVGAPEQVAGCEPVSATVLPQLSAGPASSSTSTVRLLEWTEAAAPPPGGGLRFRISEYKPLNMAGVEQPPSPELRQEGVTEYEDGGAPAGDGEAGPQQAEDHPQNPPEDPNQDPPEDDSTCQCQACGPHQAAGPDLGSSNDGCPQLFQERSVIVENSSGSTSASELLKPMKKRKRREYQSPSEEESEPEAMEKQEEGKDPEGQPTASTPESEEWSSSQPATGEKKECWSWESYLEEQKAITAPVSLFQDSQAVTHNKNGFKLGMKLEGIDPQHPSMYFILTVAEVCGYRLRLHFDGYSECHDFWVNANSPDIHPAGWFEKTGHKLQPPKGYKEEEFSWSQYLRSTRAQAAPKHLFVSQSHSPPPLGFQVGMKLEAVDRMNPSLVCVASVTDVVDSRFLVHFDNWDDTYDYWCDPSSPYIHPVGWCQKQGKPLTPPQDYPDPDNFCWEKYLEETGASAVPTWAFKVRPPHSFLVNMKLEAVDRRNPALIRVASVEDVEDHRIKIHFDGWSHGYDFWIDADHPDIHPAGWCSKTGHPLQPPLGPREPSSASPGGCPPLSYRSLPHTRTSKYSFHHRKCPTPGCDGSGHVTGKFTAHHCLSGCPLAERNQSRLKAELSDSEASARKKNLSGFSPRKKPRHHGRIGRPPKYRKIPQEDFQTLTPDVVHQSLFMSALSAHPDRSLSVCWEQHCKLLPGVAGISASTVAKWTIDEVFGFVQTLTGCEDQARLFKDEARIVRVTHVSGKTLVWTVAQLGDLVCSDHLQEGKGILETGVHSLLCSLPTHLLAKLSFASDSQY
Procedure, shortened: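 First, the protein-peptide complex forms for 30 min at room temperature (L3MBTL1 50 nM, biotinylated H3K9me1 peptide 75 nM). Next, compounds are pin-transferred and incubated 30 min. Finally, AlphaScreen beads are added and read after 30 min.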
% is set by controls: 0 for no effect and ±100 for the full control effect; potency is the fitted concentration of half-maximal effect; tags give direction and shape of the fitted curve.
Note: nearly all actives have a fitted effect of over 60% in size.

`CCOC(=O)C1=C(C)OC(N)=C(C#N)C1c1cc2c(cc1Br)OCO2` (stereo not drawn) was tested. Which Potency did it give?
The Potency was “inactive”.

With `Cc1cccc(C2CN(C)CCc3c2cc(O)c(O)c3Cl)c1` (stereo not drawn) as the molecule, how does the Potency read?
Its Potency is “inactive”.

`CC(NC(=O)COC(=O)C12CC3CC(CC(O)(C3)C1)C2)c1ccccc1` (stereo not drawn) was tested. Which Potency did it give?
The Potency was inconclusive: 39.8 µM [inhibitor, single point].

`CC1CN(C2CCN(S(=O)(=O)c3ccc4ccccc4c3)CC2)CC(C)O1` (stereo not drawn) was tested. Which Potency did it give?
The Potency was “inactive”.

For `COc1cccc(C2c3[nH]c4ccccc4c3CCN2CCCn2cccn2)c1` (stereo not drawn), which Potency is on record?
Its Potency is “inactive”.

How did the Potency turn out when `CC(/C=N/NC(=O)c1ccncc1)=C\c1ccccc1` was run?
Its Potency is “inactive”.

`Nn1c(Cc2ccccc2)n[nH]c1=S` was tested. Which Potency did it give?
The Potency was “inactive”.

With `CCCCCn1c(-c2ccco2)nc2nc3ccccc3nc21` as the molecule, how does the Potency read?
Its Potency is inconclusive: 7.08 µM [inhibitor, single point].

How did the Potency turn out when `CCOc1ccc(-c2cnc(NCc3cccc4ccccc34)n2CCOC)cc1` was run?
Its Potency is “inactive”.

How did the Potency turn out when `COC(=O)/C(=N/Nc1ccccc1C)Sc1nnc(C(O)c2ccccc2)n1-c1ccccc1` (stereo not drawn) was run?
The Potency was inconclusive: 7.08 µM [inhibitor, single point].

How did the Potency turn out when `O=C(Nc1cccc(Cl)c1N1CCCC1)c1cccc(-c2cc3ccccc3oc2=O)c1` was run?
Its Potency is “inactive”.

With `O=C(O)CNC(=O)/C(=C\c1ccco1)NC(=O)c1ccco1` as the molecule, how does the Potency read?
Its Potency is inconclusive: 35.5 µM [inhibitor, single point].

`COc1ccccc1C(=O)NCCC(=O)NC(C)c1ccc(-n2ccnc2)cc1` (stereo not drawn) was tested. Which Potency did it give?
Its Potency is “inactive”.

Which Potency does the source give for `O=C(N/C(=C/c1ccc(Br)cc1)c1nc2ccccc2[nH]1)c1ccco1` here?
The Potency was inconclusive: 0.708 µM [inhibitor, single point].

With `CCOC(=O)c1[nH]c(C)c(C(=O)OCC(=O)Nc2sc3c(c2C#N)CCCCC3)c1C` as the molecule, how does the Potency read?
Its Potency is “inactive”.

With `COc1cccc(NC(=S)NNC(=O)Cn2nc([N+](=O)[O-])cc2C)c1` as the molecule, how does the Potency read?
The Potency was inconclusive: 28.2 µM [inhibitor, partial curve, poor fit].

For `CCOC(=O)CSc1nc2ccccc2c(=O)n1CCN1CCOCC1`, which Potency is on record?
The Potency was inconclusive: 0.631 µM [inhibitor, partial curve, poor fit].

Which Potency does the source give for `COc1ccc(OC)c(NC(=O)CCN2CC(C)OC(C)C2)c1` (stereo not drawn) here?
Its Potency is “inactive”.

With `CCOC(=O)CSc1nc(C)c(C(C)=O)cc1C#N` as the molecule, how does the Potency read?
Its Potency is inconclusive: 0.1 µM [inhibitor, full curve, poor fit].

`COc1cc(/C=C2\N=C(c3c(-c4ccccc4)noc3C)OC2=O)ccc1OC(C)=O` was tested. Which Potency did it give?
The Potency was inconclusive: 31.6 µM [inhibitor, partial curve, poor fit].

With `O=C(N/N=C/c1ccc([N+](=O)[O-])o1)c1cc(-c2ccc(-c3ccccc3)cc2)nc2ccccc12` as the molecule, how does the Potency read?
Its Potency is inconclusive: 15.8 µM [inhibitor, partial curve].

For `CCOc1ccc(CN2CCNC(=O)C2CC(=O)NCc2ccccn2)cc1` (stereo not drawn), which Potency is on record?
The Potency was “inactive”.

Which Potency does the source give for `Cc1ccccc1NC(=O)Cc1nc(COC(=O)CC(C)c2ccccc2)cs1` (stereo not drawn) here?
The Potency was “inactive”.

`Cc1ccc(CS/C(Nc2ccccc2C)=C(\C#N)C(N)=O)c(C)c1` was tested. Which Potency did it give?
Its Potency is “inactive”.

`CC(C)CC1NC(=O)c2cc(Cl)ccc2-n2c1nc1cc(F)ccc1c2=O` (stereo not drawn) was tested. Which Potency did it give?
Its Potency is “inactive”.

How did the Potency turn out when `COc1ccc(C2/C(=C(/O)c3ccc(F)cc3)C(=O)C(=O)N2c2ccccn2)cc1OC` (stereo not drawn) was run?
The Potency was “inactive”.

For `CC(C)C[C@@H](CNC(=O)OC(C)(C)C)NC(=O)c1nc[nH]c1C(=O)N[C@@H](CC(C)C)C(=O)CNC[C@H](CC(C)C)NC(=O)c1nc[nH]c1C(=O)N[C@@H](Cc1c[nH]c2ccccc12)C(=O)OC(C)(C)C`, which Potency is on record?
Its Potency is “inactive”.

`CCOC(=O)CSc1nc2cc(C(=O)N3CCC(C(N)=O)CC3)ccc2c(=O)n1-c1ccccc1` was tested. Which Potency did it give?
The Potency was “inactive”.

Which Potency does the source give for `Cc1nc2ccc(NC(=O)Cc3cccc(F)c3)cc2s1` here?
Its Potency is inconclusive: 3.98 µM [inhibitor, single point].

For `CC1CCCC(NC(=O)CSc2ccc(F)cc2)C1C` (stereo not drawn), which Potency is on record?
The Potency was inconclusive: 0.1 µM [inhibitor, full curve, poor fit].

`CC(C)(C)c1ccccc1NC(=O)Cn1cnc2cc([N+](=O)[O-])ccc2c1=O` was tested. Which Potency did it give?
Its Potency is “inactive”.

Which Potency does the source give for `O=C(COC(=O)c1ccc([N+](=O)[O-])o1)NCc1ccccc1` here?
Its Potency is inconclusive: 28.2 µM [inhibitor, single point].

With `CCOC(=O)CCCCC(=O)c1[nH]c(=O)[nH]c1CN1CCOCC1` as the molecule, how does the Potency read?
Its Potency is inconclusive: 22.4 µM [inhibitor, partial curve].

For `O=C(CSc1ncnc2c1oc1ccccc12)NCc1ccco1`, which Potency is on record?
The Potency was inconclusive: 35.5 µM [inhibitor, partial curve].

`CCC(CC)C(=O)NCCc1cc2ccc(C)cc2[nH]c1=O` was tested. Which Potency did it give?
Its Potency is inconclusive: 39.8 µM [inhibitor, single point].

With `CCOc1ccc(C(=O)NCc2ccco2)cc1OC` as the molecule, how does the Potency read?
Its Potency is inconclusive: 31.6 µM [inhibitor, single point].

`CC(=O)NC(c1cc(Cl)c2cccnc2c1O)C(C)C` (stereo not drawn) was tested. Which Potency did it give?
The Potency was “inactive”.

`N#Cc1c(NC(=O)COC(=O)c2ccc(O)cc2O)sc2c1CCC2` was tested. Which Potency did it give?
Its Potency is inconclusive: 28.2 µM [inhibitor, single point].

How did the Potency turn out when `CCOc1ccccc1Nc1ccc(C(=O)O)cc1NC(C)=O` was run?
The Potency was “inactive”.

`CCC1CCCCN1CCNC(=O)CCS(=O)(=O)c1ccc(Br)cc1` (stereo not drawn) was tested. Which Potency did it give?
Its Potency is inconclusive: 3.98 µM [inhibitor, full curve].

How did the Potency turn out when `CCOc1ccc2nc(-c3ccccc3)nc(SCC(=O)Nc3ncc(C)s3)c2c1` was run?
The Potency was inconclusive: 5.62 µM [inhibitor, single point].

For `COc1ccc(C(=O)N2CCN(c3ccc(C)c(C)c3)CC2)cc1OC`, which Potency is on record?
Its Potency is “inactive”.

Which Potency does the source give for `CC(C)(C)C(=O)N1NC(=Nc2ccccc2)SC1(C)C` here?
Its Potency is inconclusive: 8.91 µM [inhibitor, single point].

For `CCN(c1ccc(NC(=O)CSc2ccc3c(c2)OCCO3)cc1)C(C)C`, which Potency is on record?
Its Potency is inconclusive: 25.1 µM [inhibitor, partial curve].

For `COc1ccc(C)cc1Nc1n[n+](-c2ccccc2)c(-c2ccc(NC(C)=O)cc2)s1`, which Potency is on record?
The Potency was “inactive”.

`Cc1ccc(OCC(=O)N2CC3(C)CC2CC(C)(C)C3)cc1` (stereo not drawn) was tested. Which Potency did it give?
The Potency was inconclusive: 4.47 µM [inhibitor, single point].

How did the activity, negative = inhibition turn out when `Cc1nc2cc(NC(=O)NCc3ccco3)ccc2n1C` was run?
Its activity, negative = inhibition is inactive: 11.2% [at 11.4 µM].

How did the Potency turn out when `Cc1[nH]c2ccccc2c1/C=N/Nc1nc(Nc2ccc(F)cc2)nc(N2CCOCC2)n1` was run?
Its Potency is inconclusive: 39.8 µM [inhibitor, single point].
